Among all 310,000 compounds or so, about 2,200 (0.71%) showed an effect of 50% or more. The effect is printed as a negative number. The list shows a part of the results.
target: human ether-à-go-go-related gene (hERG) potassium channel (human, UniProt Q12809); experiment: primary screen, population patch clamp on CHO cells stably expressing hERG
Sequence (Q12809 whole entry, looked up): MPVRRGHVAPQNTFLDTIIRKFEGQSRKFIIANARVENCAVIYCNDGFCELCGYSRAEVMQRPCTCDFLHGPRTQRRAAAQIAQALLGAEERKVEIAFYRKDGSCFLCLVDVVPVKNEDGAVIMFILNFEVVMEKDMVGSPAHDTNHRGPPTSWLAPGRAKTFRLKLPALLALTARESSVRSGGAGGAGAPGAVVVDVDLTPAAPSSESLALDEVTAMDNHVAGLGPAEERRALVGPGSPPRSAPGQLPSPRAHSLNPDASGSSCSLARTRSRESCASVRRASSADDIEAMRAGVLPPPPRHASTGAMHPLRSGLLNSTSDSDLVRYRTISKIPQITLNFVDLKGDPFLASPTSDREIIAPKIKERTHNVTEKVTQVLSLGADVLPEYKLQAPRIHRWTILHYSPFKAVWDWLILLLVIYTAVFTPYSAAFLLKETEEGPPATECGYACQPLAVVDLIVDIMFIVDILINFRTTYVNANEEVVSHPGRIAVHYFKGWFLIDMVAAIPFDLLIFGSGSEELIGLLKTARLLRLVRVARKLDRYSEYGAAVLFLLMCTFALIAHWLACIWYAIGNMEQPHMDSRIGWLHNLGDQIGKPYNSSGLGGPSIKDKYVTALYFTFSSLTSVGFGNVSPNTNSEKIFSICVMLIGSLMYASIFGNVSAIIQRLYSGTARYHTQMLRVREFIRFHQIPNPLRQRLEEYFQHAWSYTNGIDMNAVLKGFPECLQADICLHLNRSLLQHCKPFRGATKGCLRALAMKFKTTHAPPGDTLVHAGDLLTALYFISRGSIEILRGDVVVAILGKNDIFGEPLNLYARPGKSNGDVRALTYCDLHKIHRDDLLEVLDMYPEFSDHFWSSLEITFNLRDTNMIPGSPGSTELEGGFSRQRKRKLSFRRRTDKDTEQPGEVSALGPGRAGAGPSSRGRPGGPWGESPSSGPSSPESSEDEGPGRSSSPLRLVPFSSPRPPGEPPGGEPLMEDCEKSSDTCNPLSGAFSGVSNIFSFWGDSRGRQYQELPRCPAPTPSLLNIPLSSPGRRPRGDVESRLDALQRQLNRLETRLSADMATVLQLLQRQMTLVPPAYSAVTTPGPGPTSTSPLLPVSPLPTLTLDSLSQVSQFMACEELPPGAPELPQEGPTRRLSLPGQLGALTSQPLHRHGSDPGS

Q: With CC(C)N1CCN(S(=O)(=O)c2ccc3ccccc3c2)CC1.O=C(O)C(=O)O as the compound, how does the “hERG current change (%, negative = inhibition) at 1uM” value read?
A: Its value is 20.2%.

Q: Cn1c(C(=O)NCc2cccnc2)cc2sccc21 was tested. Which “hERG current change (%, negative = inhibition) at 1uM” value did it give?
A: Its value is -8.98%.

Q: How did the “hERG current change (%, negative = inhibition) at 1uM” value turn out when CCOc1ccc(C(=O)NC(=S)N2CCN(c3ccc(C(F)(F)F)cc3[N+](=O)[O-])CC2)cc1 was run?
A: The value was 6.77%.

Q: For CCOc1ccc(N2C(=O)S/C(=C\c3cc(OC)c(OC)c(OC)c3)C2=O)cc1, which “hERG current change (%, negative = inhibition) at 1uM” value is on record?
A: Its value is 10.8%.

Q: For COCCn1c(=NC(=O)c2ccc(S(=O)(=O)N3CCOCC3)cc2)sc2cc(S(N)(=O)=O)ccc21, which “hERG current change (%, negative = inhibition) at 1uM” value is on record?
A: Its value is 5.96%.

Q: CCCCCOc1ccc(C(=O)NCCC(=O)NCCCC(=O)OCC)cc1 was tested. Which “hERG current change (%, negative = inhibition) at 1uM” value did it give?
A: Its value is 11.4%.

Q: How did the “hERG current change (%, negative = inhibition) at 1uM” value turn out when O=[N+]([O-])c1cc(C(F)(F)F)cc([N+](=O)[O-])c1NN=C1CCCCC1 was run?
A: Its value is 9.66%.

Q: For Cc1cc(SCC(=O)Nc2c(C)n(C)n(-c3ccccc3)c2=O)nc2ccccc12, which “hERG current change (%, negative = inhibition) at 1uM” value is on record?
A: The value was 8.86%.

Q: Which “hERG current change (%, negative = inhibition) at 1uM” value does the source give for O=C(NCc1ccco1)c1cc(-c2ccncc2)nc2ccccc12 here?
A: The value was -2.39%.

Q: For CC(=O)c1sc2nc(SCC(=O)N3CCCCC3)[nH]c(=O)c2c1C, which “hERG current change (%, negative = inhibition) at 1uM” value is on record?
A: The value was 7.05%.

Q: How did the “hERG current change (%, negative = inhibition) at 1uM” value turn out when O=C(CN1C(=O)COc2ccc(S(=O)(=O)N3CCCC3)cc21)NC1CCCCCCC1 was run?
A: The value was 15.6%.

Q: COc1ccc(NC(=S)Nc2ccc(OCc3ccccc3)cc2)c(OC)c1 was tested. Which “hERG current change (%, negative = inhibition) at 1uM” value did it give?
A: The value was 12.6%.

Q: CC(=O)Nc1ccc(C(=O)OCC(=O)Nc2c(F)cccc2F)cc1 was tested. Which “hERG current change (%, negative = inhibition) at 1uM” value did it give?
A: The value was 13.5%.

Q: Which “hERG current change (%, negative = inhibition) at 1uM” value does the source give for CCCN(CCC)C(=S)NC(=O)c1ccc(-c2ccccc2)cc1 here?
A: The value was 2.75%.

Q: Which “hERG current change (%, negative = inhibition) at 1uM” value does the source give for CN(CC(=O)Nc1ccc(F)c(F)c1F)c1cnccn1 here?
A: The value was -7.21%.

Q: How did the “hERG current change (%, negative = inhibition) at 1uM” value turn out when COC(=O)c1c(NC(=O)CC2SCC(C(=O)OC)NC2=O)sc2c1CCCC2 (stereo not drawn) was run?
A: The value was 7.92%.

Q: How did the “hERG current change (%, negative = inhibition) at 1uM” value turn out when COCCOc1ccc(C(F)(F)F)cc1NC(=O)c1ccccc1F was run?
A: Its value is 10.1%.

Q: With O=C(O)c1cccc(NC(=O)C2CCCO2)c1 (stereo not drawn) as the compound, how does the “hERG current change (%, negative = inhibition) at 1uM” value read?
A: The value was 19.7%.

Q: Which “hERG current change (%, negative = inhibition) at 1uM” value does the source give for O=C(Nc1cc2c3c(c1)CC(=O)N3CCC2)c1ccccc1Br here?
A: Its value is 10.8%.

Q: Cc1ccc(NC(=O)/C=C\C(=O)NCC(=O)O)cc1C was tested. Which “hERG current change (%, negative = inhibition) at 1uM” value did it give?
A: The value was 12.1%.

Q: How did the “hERG current change (%, negative = inhibition) at 1uM” value turn out when CC1(C)CC(=O)C(Sc2ccccc2[N+](=O)[O-])=C(O)C1 was run?
A: The value was 17.6%.

Q: How did the “hERG current change (%, negative = inhibition) at 1uM” value turn out when Cc1cccc(N2CCN(C(=O)c3ccccc3SCC(=O)N3CCCC3)CC2)c1C was run?
A: The value was 2.89%.

Q: Which “hERG current change (%, negative = inhibition) at 1uM” value does the source give for CCC1(C(=O)c2ccccc2)C2c3ccccc3OC(=O)C21C(C)=O (stereo not drawn) here?
A: The value was 9.22%.

Q: For O=C(CN(Cc1ccccc1)C(=O)c1csnn1)NCc1ccc2c(c1)OCO2, which “hERG current change (%, negative = inhibition) at 1uM” value is on record?
A: Its value is 6.31%.

— article PMC4336329 (PLoS ONE, 2015)
